Laboratory results as given in patent US20250243282A1.

B1: F847C.26F5 (antibody)
heavy: QIQLVQSGPEVKKPGETVKISCKASGYIFTNYGMNWVKQAPGKGLKWMGWINTYTGEPTYTDDFKGRFAFSLETSASTAYLQINNLKNEDTATYFCAKFGNYVGAMDYWGQGTSVTVSSASTKGPSVFPLAPCSRSTSESTAALGCLVKDYFPEPVTVSWNSGALTSGVHTFPAVLQSSGLYSLSSVVTVPSSSLGTKTYTCNVDHKPSNTKVDKRV[human IgG4 Fc with S228P (EU numbers) not given here]
light: EIKMNQSPSSLSASLGDTITITCHASQNINVWLSWYQQKPGNIPKLLIYKASNLHTGVPSRFSGSGSGTGFTLTISSLQPEDIATYYCQQGQSYPYTFGGGTKLELKRTVAAPSVFIFPPSDEQLKSGTASVVCLLNNFYPREAKVQWKVDNALQSGNSQESVTEQDSKDSTYSLSSTLTLSKADYEKHKVYACEVTHQGLSSPVTKSFNRGEC
B2: F847C.10B9 (antibody)
heavy: QIQLVQSGPEVKKPGETVKISCKASGYIFTNYGMNWVKQAPGKGLKWMGWINTYTGEPTYTDDFKGRFAFSLETSASTAYLQINNLKNEDTATYFCAKFGNYVGAMDYWGQGTSVTVSSASTKGPSVFPLAPCSRSTSESTAALGCLVKDYFPEPVTVSWNSGALTSGVHTFPAVLQSSGLYSLSSVVTVPSSSLGTKTYTCNVDHKPSNTKVDKRV[human IgG4 Fc with S228P (EU numbers) not given here]
light: DIRMTQSPSSLSASLGDTITITCHASQNINVWLSWYQQKPGNIPKLLIYKASNLHTGVPSRFSGSGSGTGFTLTISSLQPEDIATYYCQQGQSYPYTFGGGTKLELKRTVAAPSVFIFPPSDEQLKSGTASVVCLLNNFYPREAKVQWKVDNALQSGNSQESVTEQDSKDSTYSLSSTLTLSKADYEKHKVYACEVTHQGLSSPVTKSFNRGEC

Key:
[1] = molecular target: Recombinant human Gal3 (rhGal3) (TrueBinding, #QC200361) (human) (UniProt P17931); test: cell-based or functional assay
[2] = molecular target: human Gal3 protein (recombinant human Galectin-3) (human) (UniProt P17931); test: cell-based or functional assay

Row | Binder | % inhibition of CD62L shedding [1] [%] | % inhibition of IL-6 secretion [1] [%] | % inhibition of TNFα secretion [1] [%] | % inhibition of IL-6 secretion (neutrophils) [2] [%] | % inhibition of TNFα secretion (neutrophils) [2] [%]
1 | B1 | 69.7 | 5.8 | -64.7 | – | –
2 | B2 | 82.2 | -17.7 | 22.6 | -17.7 | 22.6
